{"source": "PubChem BioAssay AID330", "about": "(DTP/NCI, 2004)", "tested_on": "P388 leukemia ip, CD2F1 mice, survival T/C", "assay": "NCI In Vivo Anticancer Drug Screen. Data for tumor model P388 Leukemia (intraperitoneal) in CD2F1 (CDF1) mice", "settings": "endpoint: median survival time, higher = longer survival", "description": "The antitumor activity of compounds was measured in mice bearing transplantable tumors. Survival or tumor size were measured and the results are expressed as the measurement made in the treated group (T) divided by the measurement made in the vehicle treated control group (C). The tumor model used in this assay is P388 Leukemia (intraperitoneal) in CD2F1 (CDF1) mice", "note": "“And” between values parts separate entries of the source, which are not always exact repeats. Identical values can stand only once. The source gives many values for each of these; only a part stands here. Toxic doses and inconclusive results are not listed."}
{"smiles": "COc1cccc2c1C(=O)c1c(O)c3c(c(O)c1C2=O)C[C@@](O)(C(=O)CO)C[C@@H]3OC1CC(N)C(O)C(C)O1", "note": "(stereo partly drawn)", "values": [{"measurement": "T/C", "setting": "dose: 3.0 mg/kg/injection, schedule: Q01DX005 (ip), vehicle: saline", "value": "175 % of control"}, {"measurement": "T/C", "setting": "dose: 3.2 mg/kg/injection, schedule: Q01DX001 (ip), vehicle: water", "value": "201 % of control and 184 % of control"}, {"measurement": "T/C", "setting": "dose: 3.2 mg/kg/injection, schedule: Q01DX004 (ip), vehicle: saline", "value": "181 % of control and 207 % of control"}, {"measurement": "T/C", "setting": "dose: 3.33 mg/kg/injection, schedule: Q01DX009 (ip), vehicle: saline", "value": "200 % of control and 175 % of control"}, {"measurement": "T/C", "setting": "dose: 3.6 mg/kg/injection, schedule: Q04DX002 (ip), vehicle: saline", "value": "200 % of control"}, {"measurement": "T/C", "setting": "dose: 3.6 mg/kg/injection, schedule: Q04DX002 (ip), vehicle: water", "value": "192 % of control"}, {"measurement": "T/C", "setting": "dose: 3.6 mg/kg/injection, schedule: Q04DX003 (ip), vehicle: water", "value": "191 % of control"}, {"measurement": "T/C", "setting": "dose: 4.0 mg/kg/injection, schedule: Q01DX005 (ip), vehicle: saline", "value": "187 % of control"}, {"measurement": "T/C", "setting": "dose: 4.0 mg/kg/injection, schedule: Q01DX005 (ip), vehicle: water", "value": "215 % of control and 276 % of control"}, {"measurement": "T/C", "setting": "dose: 4.0 mg/kg/injection, schedule: Q01DX005 (sc), vehicle: water", "value": "196 % of control"}, {"measurement": "T/C", "setting": "dose: 4.0 mg/kg/injection, schedule: Q02DX002 (ip), vehicle: saline", "value": "198 % of control"}, {"measurement": "T/C", "setting": "dose: 4.0 mg/kg/injection, schedule: Q03HX008 (ip), vehicle: saline", "value": "178 % of control"}, {"measurement": "T/C", "setting": "dose: 4.0 mg/kg/injection, schedule: Q04DX002 (ip), vehicle: saline", "value": "214 % of control"}, {"measurement": "T/C", "setting": "dose: 4.2 mg/kg/injection, schedule: Q01DX001 (ip), vehicle: water", "value": "187 % of control and 203 % of control"}, {"measurement": "T/C", "setting": "dose: 4.32 mg/kg/injection, schedule: Q01DX001 (ip), vehicle: saline", "value": "182 % of control and 200 % of control"}, {"measurement": "T/C", "setting": "dose: 4.5 mg/kg/injection, schedule: Q04DX002 (ip), vehicle: saline", "value": "188 % of control and 189 % of control and 208 % of control"}, {"measurement": "T/C", "setting": "dose: 4.5 mg/kg/injection, schedule: Q04DX003 (ip), vehicle: water", "value": "200 % of control"}, {"measurement": "T/C", "setting": "dose: 4.8 mg/kg/injection, schedule: Q04DX002 (ip), vehicle: saline", "value": "188 % of control and 217 % of control"}, {"measurement": "T/C", "setting": "dose: 5.0 mg/kg/injection, schedule: Q01DX001 (ip), vehicle: water", "value": "155 % of control"}, {"measurement": "T/C", "setting": "dose: 5.0 mg/kg/injection, schedule: Q01DX005 (ip), vehicle: saline", "value": "202 % of control"}, {"measurement": "T/C", "setting": "dose: 5.0 mg/kg/injection, schedule: Q04DX003 (ip), vehicle: water", "value": "166 % of control"}, {"measurement": "T/C", "setting": "dose: 5.6 mg/kg/injection, schedule: Q01DX001 (ip), vehicle: water", "value": "203 % of control and 233 % of control"}, {"measurement": "T/C", "setting": "dose: 6.0 mg/kg/injection, schedule: Q04DX002 (ip), vehicle: saline", "value": "218 % of control and 240 % of control"}, {"measurement": "T/C", "setting": "dose: 6.0 mg/kg/injection, schedule: Q04DX002 (ip), vehicle: water", "value": "188 % of control"}, {"measurement": "T/C", "setting": "dose: 6.0 mg/kg/injection, schedule: Q04DX003 (ip), vehicle: water", "value": "169 % of control"}, {"measurement": "T/C", "setting": "dose: 6.33 mg/kg/injection, schedule: Q01DX001 (ip), vehicle: saline", "value": "167 % of control and 172 % of control"}, {"measurement": "T/C", "setting": "dose: 6.6 mg/kg/injection, schedule: Q01DX001 (ip), vehicle: saline", "value": "250 % of control"}, {"measurement": "T/C", "setting": "dose: 6.7 mg/kg/injection, schedule: Q04DX003 (iv), vehicle: saline", "value": "191 % of control"}, {"measurement": "T/C", "setting": "dose: 7.2 mg/kg/injection, schedule: Q01DX001 (ip), vehicle: saline", "value": "196 % of control and 356 % of control"}, {"measurement": "T/C", "setting": "dose: 7.5 mg/kg/injection, schedule: Q01DX001 (ip), vehicle: saline", "value": "166 % of control"}, {"measurement": "T/C", "setting": "dose: 7.5 mg/kg/injection, schedule: Q01DX001 (ip), vehicle: water", "value": "203 % of control and 233 % of control"}, {"measurement": "T/C", "setting": "dose: 7.5 mg/kg/injection, schedule: Q04DX002 (ip), vehicle: saline", "value": "208 % of control and 219 % of control and 225 % of control"}, {"measurement": "T/C", "setting": "dose: 7.5 mg/kg/injection, schedule: Q04DX003 (ip), vehicle: water", "value": "230 % of control"}, {"measurement": "T/C", "setting": "dose: 8.0 mg/kg/injection, schedule: Q01DX001 (ip), vehicle: DMSO", "value": "191 % of control"}, {"measurement": "T/C", "setting": "dose: 8.0 mg/kg/injection, schedule: Q01DX001 (ip), vehicle: other", "value": "183 % of control"}, {"measurement": "T/C", "setting": "dose: 8.0 mg/kg/injection, schedule: Q01DX005 (sc), vehicle: water", "value": "86 % of control"}, {"measurement": "T/C", "setting": "dose: 8.0 mg/kg/injection, schedule: Q02DX002 (ip), vehicle: saline", "value": "235 % of control"}, {"measurement": "T/C", "setting": "dose: 8.0 mg/kg/injection, schedule: Q04DX002 (ip), vehicle: saline", "value": "225 % of control"}, {"measurement": "T/C", "setting": "dose: 8.0 mg/kg/injection, schedule: Q04DX003 (ip), vehicle: saline", "value": "154 % of control"}, {"measurement": "T/C", "setting": "dose: 8.0 mg/kg/injection, schedule: Q04DX003 (iv), vehicle: saline", "value": "184 % of control"}, {"measurement": "T/C", "setting": "dose: 8.44 mg/kg/injection, schedule: Q01DX001 (ip), vehicle: saline", "value": "180 % of control"}, {"measurement": "T/C", "setting": "dose: 9.0 mg/kg/injection, schedule: Q04DX002 (ip), vehicle: saline", "value": "269 % of control"}, {"measurement": "T/C", "setting": "dose: 10.0 mg/kg/injection, schedule: Q01DX001 (ip), vehicle: water", "value": "223 % of control and 225 % of control"}, {"measurement": "T/C", "setting": "dose: 10.0 mg/kg/injection, schedule: Q04DX002 (ip), vehicle: saline", "value": "93 % of control"}, {"measurement": "T/C", "setting": "dose: 10.0 mg/kg/injection, schedule: Q04DX002 (ip), vehicle: water", "value": "291 % of control"}, {"measurement": "T/C", "setting": "dose: 10.0 mg/kg/injection, schedule: Q04DX003 (ip), vehicle: water", "value": "150 % of control and 155 % of control"}, {"measurement": "T/C", "setting": "dose: 10.0 mg/kg/injection, schedule: Q04DX003 (iv), vehicle: saline", "value": "214 % of control"}, {"measurement": "T/C", "setting": "dose: 11.25 mg/kg/injection, schedule: Q01DX001 (ip), vehicle: saline", "value": "193 % of control and 202 % of control"}, {"measurement": "T/C", "setting": "dose: 12.0 mg/kg/injection, schedule: Q01DX001 (ip), vehicle: saline", "value": "254 % of control and 279 % of control and 356 % of control"}, {"measurement": "T/C", "setting": "dose: 13.3 mg/kg/injection, schedule: Q01DX001 (ip), vehicle: saline", "value": "204 % of control"}, {"measurement": "T/C", "setting": "dose: 15.0 mg/kg/injection, schedule: Q01DX001 (iv), vehicle: saline", "value": "208 % of control"}, {"measurement": "T/C", "setting": "dose: 16.0 mg/kg/injection, schedule: Q01DX001 (ip), vehicle: DMSO", "value": "215 % of control"}, {"measurement": "T/C", "setting": "dose: 16.0 mg/kg/injection, schedule: Q01DX001 (ip), vehicle: Klucel (hydroxypropylcellulose) (HPC)", "value": "166 % of control"}, {"measurement": "T/C", "setting": "dose: 16.0 mg/kg/injection, schedule: Q01DX001 (iv), vehicle: saline", "value": "229 % of control"}, {"measurement": "T/C", "setting": "dose: 16.0 mg/kg/injection, schedule: Q02DX002 (ip), vehicle: saline", "value": "78 % of control"}, {"measurement": "T/C", "setting": "dose: 16.0 mg/kg/injection, schedule: Q04DX003 (ip), vehicle: saline", "value": "166 % of control and 172 % of control"}, {"measurement": "T/C", "setting": "dose: 17.5 mg/kg/injection, schedule: Q01DX001 (ip), vehicle: saline", "value": "196 % of control and 198 % of control"}, {"measurement": "T/C", "setting": "dose: 20.0 mg/kg/injection, schedule: Q01DX001 (iv), vehicle: saline", "value": "219 % of control"}, {"measurement": "T/C", "setting": "dose: 20.0 mg/kg/injection, schedule: Q04DX003 (ip), vehicle: water", "value": "163 % of control"}, {"measurement": "T/C", "setting": "dose: 26.67 mg/kg/injection, schedule: Q01DX001 (ip), vehicle: saline", "value": "58 % of control"}, {"measurement": "T/C", "setting": "dose: 26.67 mg/kg/injection, schedule: Q01DX001 (iv), vehicle: saline", "value": "203 % of control"}, {"measurement": "T/C", "setting": "dose: 30.0 mg/kg/injection, schedule: Q01DX001 (ip), vehicle: saline", "value": "83 % of control"}, {"measurement": "T/C", "setting": "dose: 40.0 mg/kg/injection, schedule: Q01DX001 (ip), vehicle: saline", "value": "84 % of control"}, {"measurement": "T/C", "setting": "dose: 55.6 mg/kg/injection, schedule: Q01DX001 (oral), vehicle: saline", "value": "97 % of control"}, {"measurement": "T/C", "setting": "dose: 64.0 mg/kg/injection, schedule: Q01DX001 (ip), vehicle: saline", "value": "58 % of control"}, {"measurement": "T/C", "setting": "dose: 64.0 mg/kg/injection, schedule: Q04DX003 (ip), vehicle: saline", "value": "100 % of control"}, {"measurement": "T/C", "setting": "dose: 92.6 mg/kg/injection, schedule: Q01DX001 (oral), vehicle: saline", "value": "95 % of control"}, {"measurement": "T/C", "setting": "dose: 128.0 mg/kg/injection, schedule: Q01DX001 (ip), vehicle: saline", "value": "42 % of control"}]}
